# Source: patent US20130251703A1 (Novartis, published 2013)
# B1: Hu HER3: CD33-[Human HER3, […]]-TAG (receptor)
# chain: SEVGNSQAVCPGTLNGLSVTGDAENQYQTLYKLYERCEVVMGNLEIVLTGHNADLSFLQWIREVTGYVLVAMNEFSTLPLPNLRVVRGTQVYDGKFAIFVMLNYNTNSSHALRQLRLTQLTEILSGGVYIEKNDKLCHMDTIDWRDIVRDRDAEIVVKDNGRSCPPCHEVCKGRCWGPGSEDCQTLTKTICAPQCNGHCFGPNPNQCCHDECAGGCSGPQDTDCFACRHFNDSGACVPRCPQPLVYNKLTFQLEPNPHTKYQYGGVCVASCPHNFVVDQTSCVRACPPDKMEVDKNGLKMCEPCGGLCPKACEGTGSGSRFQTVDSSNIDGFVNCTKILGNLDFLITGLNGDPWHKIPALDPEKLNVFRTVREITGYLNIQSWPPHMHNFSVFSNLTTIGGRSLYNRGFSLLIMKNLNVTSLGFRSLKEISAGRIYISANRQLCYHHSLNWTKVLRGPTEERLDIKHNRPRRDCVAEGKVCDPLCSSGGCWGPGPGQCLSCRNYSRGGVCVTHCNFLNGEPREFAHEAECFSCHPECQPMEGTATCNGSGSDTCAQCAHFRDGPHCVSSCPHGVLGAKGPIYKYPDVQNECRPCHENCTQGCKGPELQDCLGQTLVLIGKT
# notes: also called hu HER3-Tag; HER3-Tag; not shown: C-terminal TAG (e.g. FLAG TAG)
# Assays:
# MOR12604 = molecular target: T1, MOR12604; assay: solution equilibrium titration (SET), ECL readout; soluble HER3-Tag (human, by the legend of FIG. 1) titrated against a constant amount of MOR12604 IgG, remaining free IgG detected
# T1 construct: Tested as IgG
# MOR12615 = molecular target: T2, MOR12615; assay: solution equilibrium titration (SET), ECL readout; soluble human HER3-Tag titrated against a constant amount of MOR12615 IgG, remaining free IgG detected
# T2 construct: Tested as IgG
# T2 sequence (VH, as listed by the source, chain 1 of 2): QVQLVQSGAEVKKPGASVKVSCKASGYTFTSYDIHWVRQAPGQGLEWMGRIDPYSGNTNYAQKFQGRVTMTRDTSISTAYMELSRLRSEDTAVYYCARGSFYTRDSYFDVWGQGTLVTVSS
# T2 sequence (VL, as listed by the source, chain 2 of 2): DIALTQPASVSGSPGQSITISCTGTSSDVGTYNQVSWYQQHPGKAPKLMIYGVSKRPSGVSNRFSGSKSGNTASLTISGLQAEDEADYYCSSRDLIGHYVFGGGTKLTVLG
# T1 sequence (VH, as listed by the source, chain 1 of 2): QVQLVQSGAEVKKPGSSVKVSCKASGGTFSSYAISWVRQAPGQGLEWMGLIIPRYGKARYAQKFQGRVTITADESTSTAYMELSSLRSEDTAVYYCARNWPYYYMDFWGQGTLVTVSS
# T1 sequence (VL, as listed by the source, chain 2 of 2): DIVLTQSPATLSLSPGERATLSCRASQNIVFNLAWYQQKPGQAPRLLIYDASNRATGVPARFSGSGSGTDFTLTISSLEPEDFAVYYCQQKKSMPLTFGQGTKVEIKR
binder,measurement,setting,value
B1,IC50 (read off the curve),MOR12604,~3 nM
same,IC50 (read off the curve),MOR12615,~0.3 nM
